In article PMC4336329 (PLoS ONE, 2015):
About 14,000 (4.5%) of roughly 310,000 compounds showed an effect of 50% or more. Effects have a minus sign here. This is one part of the list.

biological target: human ether-à-go-go-related gene (hERG) potassium channel (human, UniProt Q12809); assay: primary screen, population patch clamp on CHO cells stably expressing hERG
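Further: peak tail current of the secondary pulse compared with the same well before compound.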

Sequence of human ether-à-go-go-related gene (hERG) potassium channel (Q12809 whole entry, looked up): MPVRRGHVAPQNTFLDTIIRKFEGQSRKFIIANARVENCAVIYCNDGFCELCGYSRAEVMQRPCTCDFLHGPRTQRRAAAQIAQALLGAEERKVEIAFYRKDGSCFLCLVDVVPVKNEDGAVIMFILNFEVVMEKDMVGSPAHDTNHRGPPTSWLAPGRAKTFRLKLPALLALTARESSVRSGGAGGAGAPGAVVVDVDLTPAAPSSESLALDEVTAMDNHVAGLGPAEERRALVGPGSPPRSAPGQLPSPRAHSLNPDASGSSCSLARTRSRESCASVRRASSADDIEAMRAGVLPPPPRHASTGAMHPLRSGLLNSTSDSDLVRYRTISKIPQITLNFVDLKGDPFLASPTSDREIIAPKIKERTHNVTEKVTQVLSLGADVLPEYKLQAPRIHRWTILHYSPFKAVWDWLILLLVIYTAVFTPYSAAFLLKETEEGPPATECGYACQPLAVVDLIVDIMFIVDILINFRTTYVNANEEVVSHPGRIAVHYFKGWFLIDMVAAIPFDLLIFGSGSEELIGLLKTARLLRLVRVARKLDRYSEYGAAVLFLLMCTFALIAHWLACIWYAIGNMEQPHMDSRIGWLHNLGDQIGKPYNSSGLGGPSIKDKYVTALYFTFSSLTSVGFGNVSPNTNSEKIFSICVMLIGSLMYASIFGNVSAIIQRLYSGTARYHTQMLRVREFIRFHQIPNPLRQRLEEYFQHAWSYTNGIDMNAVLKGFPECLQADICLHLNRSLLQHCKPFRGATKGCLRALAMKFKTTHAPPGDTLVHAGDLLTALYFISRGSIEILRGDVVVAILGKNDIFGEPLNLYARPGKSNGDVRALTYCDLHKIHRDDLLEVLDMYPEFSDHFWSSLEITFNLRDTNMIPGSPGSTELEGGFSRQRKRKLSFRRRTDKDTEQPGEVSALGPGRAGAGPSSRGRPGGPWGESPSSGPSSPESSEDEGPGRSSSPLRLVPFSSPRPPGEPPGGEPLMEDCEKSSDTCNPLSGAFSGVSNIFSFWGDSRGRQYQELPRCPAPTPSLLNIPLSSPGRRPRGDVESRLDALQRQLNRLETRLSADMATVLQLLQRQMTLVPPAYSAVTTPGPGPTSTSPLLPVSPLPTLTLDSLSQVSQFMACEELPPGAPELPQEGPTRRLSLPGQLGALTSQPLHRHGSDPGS

First: CCCC(=O)NNC(=O)c1c(O)c2ccccc2[nH]c1=O
Second: Cn1c(SCC(=O)NNC(=O)Cc2ccccc2)nc2ccccc2c1=O
The “hERG current change (%, negative = inhibition) at 10uM” value of the first is higher: 13.3% for the first, 11.7% for the second.

First: O=C(COC(=O)c1ccc(S(=O)(=O)Nc2ccccc2)cc1)NCc1ccco1
Second: CC(=O)c1ccc(NC(=O)Nc2cccc3ccccc23)cc1
The “hERG current change (%, negative = inhibition) at 10uM” value of the first is lower: -2.1% for the first, 18.1% for the second.

Going from `O=C(CCCSc1nc2ccccc2[nH]1)N1CCN(c2ccc([N+](=O)[O-])cc2)CC1` to `CCCc1cc(=O)[nH]c(SCC(=O)N2CCN(S(=O)(=O)c3ccc4ccccc4c3)CC2)n1`, the “hERG current change (%, negative = inhibition) at 10uM” value rises from -79.9% to 11%.

Compared with `COc1ccc2nc(SCC(=O)NC(C)(C)C)[nH]c2c1`, `COC(=O)c1ccc(Cl)c(NC(=O)CSc2ncn[nH]2)c1` is lower in “hERG current change (%, negative = inhibition) at 10uM” value: 8.03% for the first, 6.05% for the second.

Compared with `O=S(=O)(/C=C/c1ccccc1)NCCc1ccccn1`, `O=C(COC(=O)/C=C/c1cccc(F)c1)NNC(=O)c1ccccc1` is higher in “hERG current change (%, negative = inhibition) at 10uM” value: 10.7% for the first, 11.7% for the second.

First: CCc1ccc(S(=O)(=O)/N=C2/C=C(Sc3ncn[nH]3)C(=O)c3ccccc32)cc1
Second: CCC(=O)N(Cc1ccc(S(N)(=O)=O)cc1)C1CC(=O)N(c2ccccc2)C1=O (centres unmarked)
The “hERG current change (%, negative = inhibition) at 10uM” value of the first is lower: 25% for the first, 35.7% for the second.

Compared with `CC1CCN(C(=O)c2ccc3c(c2NCCO)C(=O)c2ccccc2C3=O)CC1`, `Cc1ccc(C(=O)Nc2cccc(C(=O)O)c2)cc1S(=O)(=O)N1CCOCC1` is higher in “hERG current change (%, negative = inhibition) at 10uM” value: -3.74% for the first, 7.7% for the second.

Going from `O=C1CCN(CCc2ccccc2)CCN1[C@H](CSc1ccccc1)c1ccccc1` to `c1ccc(CCc2nn3c(Cc4ccccc4)nnc3s2)cc1`, the “hERG current change (%, negative = inhibition) at 10uM” value rises from -78.7% to -36.1%.

Compared with `NC(=O)C1=C[C@@H](c2ccccc2)C[C@@H](OCc2ccc(CO)cc2)O1`, `COc1ccccc1CNC(=O)c1ccc(CS(=O)(=O)c2ccccc2OC)o1` is lower in “hERG current change (%, negative = inhibition) at 10uM” value: 2.7% for the first, -33.2% for the second.

First: O=S1(=O)[C@H]2C[C@@H]3C=C[C@]2(CN1Cc1ccc(C(F)(F)F)cc1)O3
Second: O=C(NCC1CCOCC1)C1CCC(=O)N(Cc2cccc(C(F)(F)F)c2)C1 (centres unmarked)
The “hERG current change (%, negative = inhibition) at 10uM” value of the first is lower: -2.24% for the first, 16% for the second.

First: Cc1sc(-n2c(C)cc(/C=N/n3cnnc3)c2C)c(C#N)c1C
Second: COc1ccc(NC(C)=O)cc1NC(C)c1nc2sc(C)c(C)c2c(=O)[nH]1 (centres unmarked)
The “hERG current change (%, negative = inhibition) at 10uM” value of the first is lower: -12.9% for the first, 24.5% for the second.

Going from `Cn1c(SCC(=O)c2ccc3c(c2)Cc2ccccc2-3)nnc1-c1cccc(N)c1` to `Cn1c(SCC(=O)N/N=C/c2ccc(O)c(O)c2)nc2ccccc21`, the “hERG current change (%, negative = inhibition) at 10uM” value falls from 5.24% to 4.68%.

Going from `COc1ccc(S(=O)(=O)N2CCCC2C(=O)Nc2nc3c(s2)CCCC3)cc1` (centres unmarked) to `COc1ccccc1OCC(=O)Nc1nc2c(s1)CCCC2`, the “hERG current change (%, negative = inhibition) at 10uM” value rises from -14% to -9.31%.

Compared with `CC1(C)Cc2nc3sc4c(NCCO)ncnc4c3cc2CS1`, `CC1CCCC(NC(=O)COC(=O)c2ccc3ncsc3c2)C1C` (centres unmarked) is lower in “hERG current change (%, negative = inhibition) at 10uM” value: 4.05% for the first, -3.48% for the second.

Compared with `COC(=O)c1ccc(NC(=O)C2CC2)o1`, `COc1ccc(S(=O)(=O)NC2CCCC2)cc1NC(C)=O` is lower in “hERG current change (%, negative = inhibition) at 10uM” value: 11.7% for the first, 5% for the second.

Compared with `COc1ccc(OCCCC(=O)Nc2cccc(SC)c2)cc1`, `COc1ccc(NC(=O)COc2ccc(N(C)S(=O)(=O)c3ccc(C)cc3)cc2)cc1` is lower in “hERG current change (%, negative = inhibition) at 10uM” value: 14.4% for the first, 0.0425% for the second.

Compared with `COCCCn1c(=N)c(C(=O)NC2CCCCC2)cc2c(=O)n3ccccc3nc21`, `COC(=O)Cn1c(=O)c2c(nc3n2CCCN3Cc2ccccc2)n(C)c1=O` is higher in “hERG current change (%, negative = inhibition) at 10uM” value: -78.8% for the first, -8.37% for the second.

Going from `CC(=O)c1cccc(OCC(=O)N2CCN(CC(=O)Nc3cccc(F)c3)CC2)c1` to `CCOc1cc(C(=O)NCc2ccc(F)cc2)ccc1OCC(=O)N1CCCCC1`, the “hERG current change (%, negative = inhibition) at 10uM” value rises from -42.2% to -37.5%.

Going from `O=c1oc2cc(O)ccc2cc1S(=O)(=O)c1ccccc1` to `O=C(CCNS(=O)(=O)c1ccccc1)NNC(=O)c1csc(N2CCOCC2)n1`, the “hERG current change (%, negative = inhibition) at 10uM” value rises from 11.6% to 21.1%.

Compared with `CCOC(=O)CN1C(=O)N[C@@H](c2ccccc2)[C@@H](C(=O)OC)[C@H]1C`, `COC(C[C@H]1O[C@@H]1C(=O)[C@H](C)OCc1ccccc1)OC` is higher in “hERG current change (%, negative = inhibition) at 10uM” value: -0.0326% for the first, 25.7% for the second.

First: O=C(Cc1ccccc1[N+](=O)[O-])Nc1ccc2c(c1)OCCO2
Second: Cc1ccc(NC(=O)CSc2nnnn2-c2ccc3c(c2)OCO3)cc1C
The “hERG current change (%, negative = inhibition) at 10uM” value of the first is higher: 8.58% for the first, 7.17% for the second.

Compared with `O=C(CNC(=O)C12CC3CC(CC(C3)C1)C2)N/N=C\c1ccccn1`, `CCCCNC(=O)c1cccc(S(=O)(=O)N2CC3(C)CC2CC(C)(C)C3)c1` (centres unmarked) is lower in “hERG current change (%, negative = inhibition) at 10uM” value: -12.9% for the first, -26.7% for the second.

Compared with `C=CCN(CC=C)S(=O)(=O)c1ccc(F)cc1`, `CCOC(=O)C1=C(CS(=O)(=O)c2ccc(F)cc2)NC(=O)NC1c1ccc(O)c(O)c1` (centres unmarked) is higher in “hERG current change (%, negative = inhibition) at 10uM” value: -3.7% for the first, 15.5% for the second.

Compared with `Cc1cc(C)c2nc(SCC(=O)NC(=O)c3cccn3C)cc(C)c2c1`, `Cc1ccc(-c2nnc(SCC(=O)OC(C)C)n2N)cc1` is higher in “hERG current change (%, negative = inhibition) at 10uM” value: -2.66% for the first, 7.03% for the second.

Compared with `Cc1csc(SCC(=O)NC2CCCC2)n1`, `O=C(O)CCC(=O)Nc1ccc(S(=O)(=O)N2CCCC2)cc1` is lower in “hERG current change (%, negative = inhibition) at 10uM” value: 19.7% for the first, 17.2% for the second.

Going from `COc1ccc(C2=C(O)C(C)N(c3ccccc3)C2=N)cc1OC` (centres unmarked) to `COc1ccc(CCNCc2c(OC)ccc3ccccc23)cc1OC.Cl`, the “hERG current change (%, negative = inhibition) at 10uM” value falls from 7.02% to -44.6%.

Compared with `C/C(=C/C(=O)NCc1ccccc1)C(=O)O`, `COc1ccc(CNC(=O)COC(=O)c2ccc3ncsc3c2)cc1OC` is higher in “hERG current change (%, negative = inhibition) at 10uM” value: -2.69% for the first, 14.5% for the second.

Going from `CCCS(=O)(=O)c1nc(S(=O)(=O)c2ccc(C)cc2)c(N2CCN(C)CC2)s1` to `CCC1(c2ccc(F)cc2)NC(=O)N(CC(=O)N2c3ccccc3NC(=O)C2(C)C)C1=O` (centres unmarked), the “hERG current change (%, negative = inhibition) at 10uM” value falls from -0.314% to -36.4%.
